Reference: the supplement of paper PMC9446081
About 220 (0.56%) of roughly 39,000 compounds showed activity. The list shows a part of the results.

What follows are compounds tested on Escherichia coli K-12 BW25113 (assay: relative growth (OD600 normalised to plate interquartile mean) (fraction); higher = less growth inhibition, active = 0.2 or less). Conditions: 50 µM; LB; incubation time: overnight (16-24 h).
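Also: static incubation at 37 °C against the wild-type strain, values averaged over two biological replicates.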

SMILES	relative growth
CN(CC(=O)NC1CCCCC1)S(C)(=O)=O	inactive: 0.998
CN1C(=O)c2cc(NC(=O)c3cnccn3)ccc2OC[C@@H]2O[C@@H](CC(=O)NCC3CCCCC3)CC[C@H]21	inactive: 1
C[C@@H]1CN([C@@H](C)CO)C(=O)c2cc(NS(=O)(=O)c3cn(C)cn3)ccc2O[C@@H]1CN(C)S(=O)(=O)c1ccc(Cl)cc1	inactive: 0.982
CCCN(C)C[C@H]1OCCCC[C@@H](C)Oc2ccc(NC(=O)Nc3ccccc3)cc2C(=O)N([C@@H](C)CO)C[C@H]1C	inactive: 0.964
C[C@H]1c2cccc(O)c2C(=O)C2=C(O)[C@]3(O)C(=O)[C@@H](C(N)=O)C(=O)[C@@H](N(C)C)[C@@H]3[C@@H](O)[C@@H]21	active: 0.0376
COc1cc(C2c3cc4c(cc3C(OC3OC5COC(C)OC5C(O)C3O)C3COC(=O)C23)OCO4)cc(OC)c1O (configuration not stated)	inactive: 1.02
CO[C@@H]1CN(C)C(=O)c2ccc(NC(=O)Nc3ccccc3F)cc2OC[C@@H](C)N(Cc2ccccc2F)C[C@H]1C	inactive: 1.01
COc1cnc(NS(=O)(=O)c2ccc(N)cc2)nc1	inactive: 1.14
OC[C@H]1COCc2cnnn21	inactive: 1.01
C[C@H]1CN([C@@H](C)CO)S(=O)(=O)c2ccc(C#CC3CCCC3)cc2O[C@H]1CN(C)C(=O)Cc1ccncc1	inactive: 0.981
COc1ccc(NC(=O)Nc2ccc3c(c2)C(=O)N([C@H](C)CO)C[C@@H](C)[C@@H](CN(C)Cc2ccc4c(c2)OCO4)OCCCC[C@H](C)O3)cc1	inactive: 0.934
C[C@@H]1CN([C@@H](C)CO)C(=O)Cc2cc(NC(=O)Nc3cccc4ccccc34)ccc2O[C@H]1CN(C)S(=O)(=O)c1ccc(Cl)cc1	inactive: 1.02
C[C@H]1CN([C@@H](C)CO)C(=O)c2cc(C#CC3(O)CCCC3)cnc2O[C@@H]1CN(C)S(=O)(=O)c1ccc(F)cc1	inactive: 1.02
COc1ccc(NC(=O)N(C)C[C@@H]2OCCCC[C@H](C)Oc3ccc(NC(=O)Cc4ccccc4)cc3C(=O)N([C@@H](C)CO)C[C@@H]2C)cc1	inactive: 0.983
COc1ccc(NC(=O)Nc2ccc3c(c2)CC(=O)N([C@H](C)CO)C[C@@H](C)[C@H](CN(C)S(=O)(=O)c2cn(C)cn2)O3)cc1	inactive: 0.987
COc1ccc(S(=O)(=O)N(C)C[C@@H]2OCCCC[C@@H](C)Oc3ccc(NC(=O)NC4CCCCC4)cc3C(=O)N([C@@H](C)CO)C[C@H]2C)cc1	inactive: 0.999
O=C(O)CCC(=O)Nc1ccc(S(=O)(=O)Nc2nccs2)cc1	inactive: 1.1
